This is one part of the list.
Assays:
Assay in all cases: glycan array binding signal (z-score within array); higher = stronger binding
Details in all cases: glycan notation: IUPAC condensed, linker removed; mutation: N288D, K313I
Fuc(a1-2)Gal = biological target: Fuc(a1-2)Gal
How it was run: (§1)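 Arrays were curated from the Consortium for Functional Glycomics database, 3228 in total, and kept only where the protein sequence was available. Binding is expressed as a within-array Z-score. This score was averaged across arrays of the same protein sequence at different concentrations or buffers and across linkers, and negative values can be read as non-binding.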

Fuc(a1-2)Gal(b1-3)GalNAc = biological target: Fuc(a1-2)Gal(b1-3)GalNAc
How it was run: as §1

[1] = biological target: Fuc(a1-2)Gal(b1-3)GalNAc(a1-3)[Fuc(a1-2)]Gal(b1-4)Glc
How it was run: as §1

[2] = biological target: Fuc(a1-2)Gal(b1-3)GalNAc(a1-3)[Fuc(a1-2)]Gal(b1-4)GlcNAc
How it was run: as §1

[3] = biological target: Fuc(a1-2)Gal(b1-3)GalNAc(b1-3)Gal
How it was run: as §1

[4] = biological target: Fuc(a1-2)Gal(b1-3)GalNAc(b1-3)Gal(a1-4)Gal(b1-4)Glc
How it was run: as §1

[5] = biological target: Fuc(a1-2)Gal(b1-3)GalNAc(b1-4)[Neu5Ac(a2-3)]Gal(b1-4)Glc
How it was run: as §1

Fuc(a1-2)Gal(b1-3)GlcNAc = biological target: Fuc(a1-2)Gal(b1-3)GlcNAc
How it was run: as §1

[6] = biological target: Fuc(a1-2)Gal(b1-3)GlcNAc(b1-2)Man(a1-3)[Fuc(a1-2)Gal(b1-3)GlcNAc(b1-2)Man(a1-6)]Man(b1-4)GlcNAc(b1-4)GlcNAc
How it was run: as §1

[7] = biological target: Fuc(a1-2)Gal(b1-3)GlcNAc(b1-2)Man(a1-3)[Fuc(a1-2)Gal(b1-3)GlcNAc(b1-2)Man(a1-6)]Man(b1-4)GlcNAc(b1-4)[Fuc(a1-6)]GlcNAc
How it was run: as §1

[8] = biological target: Fuc(a1-2)Gal(b1-3)GlcNAc(b1-3)Gal(b1-4)Glc
How it was run: as §1

[9] = biological target: Fuc(a1-2)Gal(b1-3)GlcNAc(b1-3)GalNAc
How it was run: as §1

[10] = biological target: Fuc(a1-2)Gal(b1-3)GlcNAc(b1-3)[Fuc(a1-2)Gal(b1-3)GlcNAc(b1-6)]GalNAc
How it was run: as §1

[11] = biological target: Fuc(a1-2)Gal(b1-3)GlcNAc(b1-3)[Gal(b1-4)GlcNAc(b1-6)]Gal(b1-4)Glc
How it was run: as §1

[12] = biological target: Fuc(a1-2)Gal(b1-3)GlcNAc(b1-3)[Neu5Ac(a2-6)Gal(b1-4)GlcNAc(b1-6)]Gal(b1-4)Glc
How it was run: as §1

[13] = biological target: Fuc(a1-2)Gal(b1-3)GlcNAc6S
How it was run: as §1

[14] = biological target: Fuc(a1-2)Gal(b1-3)[Fuc(a1-4)]GlcNAc
How it was run: as §1

[15] = biological target: Fuc(a1-2)Gal(b1-3)[Fuc(a1-4)]GlcNAc(b1-2)Man(a1-3)[Fuc(a1-2)Gal(b1-3)[Fuc(a1-4)]GlcNAc(b1-2)Man(a1-3)]Man(b1-4)GlcNAc(b1-4)GlcNAc
How it was run: as §1

[16] = biological target: Fuc(a1-2)Gal(b1-3)[Fuc(a1-4)]GlcNAc(b1-2)Man(a1-3)[Fuc(a1-2)Gal(b1-3)[Fuc(a1-4)]GlcNAc(b1-2)Man(a1-6)]Man(b1-4)GlcNAc(b1-4)[Fuc(a1-6)]GlcNAc(b1-4)[Fuc(a1-6)]GlcNAc
How it was run: as §1

[17] = biological target: Fuc(a1-2)Gal(b1-3)[Fuc(a1-4)]GlcNAc(b1-3)[Fuc(a1-3)[Gal(b1-4)]GlcNAc(b1-6)]Gal(b1-4)Glc
How it was run: as §1

[18] = biological target: Fuc(a1-2)Gal(b1-3)[Fuc(a1-4)]GlcNAc(b1-3)[Gal(b1-4)GlcNAc(b1-6)]Gal(b1-4)Glc
How it was run: as §1

[19] = biological target: Fuc(a1-2)Gal(b1-4)Fuc(a1-3)]GlcNAc(b1-2)Man(a1-3)[Fuc(a1-2)Gal(b1-4)[Fuc(a1-3)]GlcNAc(b1-2)Man(a1-6)]Man(b1-4)GlcNAc(b1-4)GlcNAc
How it was run: as §1

Fuc(a1-2)Gal(b1-4)Glc = biological target: Fuc(a1-2)Gal(b1-4)Glc
How it was run: as §1

Fuc(a1-2)Gal(b1-4)Glc6S = biological target: Fuc(a1-2)Gal(b1-4)Glc6S
How it was run: as §1

Fuc(a1-2)Gal(b1-4)GlcNAc = biological target: Fuc(a1-2)Gal(b1-4)GlcNAc
How it was run: as §1

[20] = biological target: Fuc(a1-2)Gal(b1-4)GlcNAc(b1-2)Man
How it was run: as §1

[21] = biological target: Fuc(a1-2)Gal(b1-4)GlcNAc(b1-2)Man(a1-3)[Fuc(a1-2)Gal(b1-4)GlcNAc(b1-2)Man(a1-6)]Man(b1-4)GlcNAc(b1-4)GlcNAc
How it was run: as §1

[22] = biological target: Fuc(a1-2)Gal(b1-4)GlcNAc(b1-2)Man(a1-3)[Fuc(a1-2)Gal(b1-4)GlcNAc(b1-2)Man(a1-6)]Man(b1-4)GlcNAc(b1-4)[Fuc(a1-6)]GlcNAc
How it was run: as §1

[23] = biological target: Fuc(a1-2)Gal(b1-4)GlcNAc(b1-2)[Fuc(a1-2)Gal(b1-4)GlcNAc(b1-4)]Man(a1-3)[Fuc(a1-2)Gal(b1-4)GlcNAc(b1-2)Man(a1-6)]Man(b1-4)GlcNAc(b1-4)GlcNAc
How it was run: as §1

[24] = biological target: Fuc(a1-2)Gal(b1-4)GlcNAc(b1-3)Gal(b1-4)GlcNAc
How it was run: as §1

B1: Langerin (Homo sapiens), Q9UJ71 (protein)
chain: STLNAQIPELKSDLEKASALNTKIRALQGSLENMSKLLKRQNDILQVVSQGWKYFKGNFYYFSLIPKTWYSAEQFCVSRNSHLTSVTSESEQEFLYKTAGGLIYWIGLTKAGMEGDWSWVDDTPFNKVQSARFWIPGEPNDAGNNEHCGNIKAPSLQAWNDAPCDITFLFICKRPYVPSEP
Which results are given for B1?
glycan array binding signal (z-score) (Fuc(a1-2)Gal): -0.159; glycan array binding signal (z-score) (Fuc(a1-2)Gal(b1-3)GalNAc): -0.114; glycan array binding signal (z-score) [1]: -0.057; glycan array binding signal (z-score) [2]: -0.237; glycan array binding signal (z-score) [3]: -0.06; glycan array binding signal (z-score) [4]: -0.198; glycan array binding signal (z-score) [5]: -0.086; glycan array binding signal (z-score) (Fuc(a1-2)Gal(b1-3)GlcNAc): -0.189; glycan array binding signal (z-score) [6]: -0.01; glycan array binding signal (z-score) [7]: -0.086; glycan array binding signal (z-score) [8]: -0.099; glycan array binding signal (z-score) [9]: -0.193; glycan array binding signal (z-score) [10]: 0.215; glycan array binding signal (z-score) [11]: -0.246; glycan array binding signal (z-score) [12]: -0.054; glycan array binding signal (z-score) [13]: -0.016; glycan array binding signal (z-score) [14]: -0.13; glycan array binding signal (z-score) [15]: 0.058; glycan array binding signal (z-score) [16]: 0.376; glycan array binding signal (z-score) [17]: -0.158; glycan array binding signal (z-score) [18]: -0.101; glycan array binding signal (z-score) [19]: -0.237; glycan array binding signal (z-score) (Fuc(a1-2)Gal(b1-4)Glc): -0.288; glycan array binding signal (z-score) (Fuc(a1-2)Gal(b1-4)Glc6S): -0.003; glycan array binding signal (z-score) (Fuc(a1-2)Gal(b1-4)GlcNAc): -0.316; glycan array binding signal (z-score) [20]: -0.163; glycan array binding signal (z-score) [21]: -0.023; glycan array binding signal (z-score) [22]: -0.117; glycan array binding signal (z-score) [23]: 0.132; glycan array binding signal (z-score) [24]: -0.104

From the supplement of paper PMC8728848
